From the BET-seq Pho4 binding data (Le et al. 2018)
The list shows a part of the results. Values were computed here from the reads of four pooled replicates and scatter widely.

Target: T1, Pho4 (S. cerevisiae) (UniProt P07270)
T1 sequence: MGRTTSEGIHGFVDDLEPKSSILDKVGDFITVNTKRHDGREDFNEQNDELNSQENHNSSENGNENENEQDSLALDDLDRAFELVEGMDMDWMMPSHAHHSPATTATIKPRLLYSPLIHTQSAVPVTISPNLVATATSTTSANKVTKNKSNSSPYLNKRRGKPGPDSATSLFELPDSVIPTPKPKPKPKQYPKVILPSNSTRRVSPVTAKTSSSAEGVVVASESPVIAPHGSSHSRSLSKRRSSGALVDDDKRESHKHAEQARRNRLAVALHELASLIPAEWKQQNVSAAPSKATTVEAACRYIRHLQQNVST
Assay: relative binding free energy (BET-seq); higher = weaker binding
Details: reference: library average

Sequence	relative binding free energy [kcal/mol]
TCGAGCACGTGGATTG	0.02
TGGGGCACGTGTATTA	-0.13
GTCAGCACGTGGTTGT	-0.12
GCGTGCACGTGATTAG	0.09
GGGTACACGTGTATGA	0.18
AGGAGCACGTGTTGGT	-0.13
CGGTCCACGTGTATGG	-0.01
GCGTACACGTGGGGAT	-0.03
ACGTGCACGTGGGAGT	-0.18
TGTAGCACGTGTGGGC	-0.02
AAATTCACGTGAGTGA	0.38
ATCGTCACGTGGTTTT	0.13
GTTCGCACGTGAAATT	0.49
GGTGGCACGTGTGCGT	-0.13
TGCGTCACGTGCGTTA	-0.08
TGGGTCACGTGTATGG	0.12
ATTCGCACGTGAGTGG	0.15
AATTACACGTGTTGTA	0.07
GAGTGCACGTGATGGG	0.29
TTGGGCACGTGTTGAA	-0.09
TGCTGCACGTGTATAG	-0.01
GGTCGCACGTGGCGAG	-0.01
AACTGCACGTGTAGGG	0.03
CATAACACGTGTGTTG	-0.05
GGATACACGTGAGGGG	0.24
AGGCTCACGTGTAGAG	0.2

Sequence	relative binding free energy [kcal/mol]
AGGTACACGTGGTGTA	-0.07
CTTGGCACGTGTAACT	0.15
TAATTCACGTGCGAGT	0.27
TTGCGCACGTGGTGTG	-0.21
TTCCGCACGTGTAGTT	0
GGGGACACGTGATGCG	0.12
CATTGCACGTGGGGAT	-0.14
AGTAGCACGTGGTGCG	-0.23
GGGTGCACGTGGGAAA	0.04
TACGGCACGTGTGTTG	-0.03
GTAAGCACGTGGTCTT	-0.02
TGTGTCACGTGCAGAG	0
TAGCGCACGTGGGTAA	-0.23
TATTTCACGTGAATGC	0.27
ATCGGCACGTGTTAGG	-0.07
GTATTCACGTGCATGT	0.23
ATTGACACGTGTAAAG	0.09
ATTTTCACGTGGCCTG	0.15
TCGTTCACGTGTTCGG	0.28
TCAGTCACGTGATCGG	0.27
CCTAGCACGTGTGTGG	0.02
CGTAACACGTGGGTAG	-0.14
TGCGGCACGTGGGTCG	-0.18
TTGGACACGTGCAGAT	0.29
TGTTTCACGTGGTACA	0.11
ACTGGCACGTGTGAGT	-0.05

Sequence	relative binding free energy [kcal/mol]
TCGGACACGTGATGTA	0.18
TCTTTCACGTGATTGG	0.4
GTAAGCACGTGGTAAG	0
TTGGCCACGTGGGGTT	-0.11
GAGTGCACGTGATGCG	0.05
TTGTTCACGTGGTTGT	0.26
TCATGCACGTGGGTGT	-0.09
AGTTGCACGTGGGTCT	-0.04
TTCACCACGTGAGGGT	0.26
GATGGCACGTGAAGTT	0.22
ACATGCACGTGGTGTA	-0.1
TGATTCACGTGTTGGA	0.34
AGGGCCACGTGGCGTT	-0.17
CGAGTCACGTGGTTTT	0.1
TGTGTCACGTGAGATT	0.43
GGGGCCACGTGGTCAT	-0.12
TTGGGCACGTGGAAGG	-0.01
TAGTCCACGTGGGAGT	0
CCTTTCACGTGGAAGT	0.42
TAGGTCACGTGGTGGG	0.13
GAATTCACGTGGGATT	0.22
TGTTGCACGTGGGGGT	-0.13
TGTGACACGTGCGGAG	0.08
TGGTGCACGTGTAGGA	-0.04
ATAGACACGTGGTTGC	-0.03
AGTGACACGTGGTAGT	-0.09

Sequence	relative binding free energy [kcal/mol]
ATGCTCACGTGAGCGG	0.42
AAATTCACGTGGGTTG	0.19
GTGTGCACGTGAGTCC	0.31
GATCGCACGTGGTGAG	0.07
GGATTCACGTGGGTCT	0.39
TCAGACACGTGGGGAG	-0.07
GAATGCACGTGAGAAG	0.38
GAACTCACGTGTTGGT	0.34
TGTGTCACGTGGTACG	0.04
TGGTTCACGTGACATT	0.24
GTTGGCACGTGTCAGT	-0.11
GACTTCACGTGTGAGT	0.42
GCTGGCACGTGGGTGG	-0.19
TAGGGCACGTGAGCTT	0.08
TATCTCACGTGTGGAG	0.25
ATTATCACGTGGTCAT	0.06
TGTACCACGTGGGAGG	-0.14
GATTGCACGTGGAGGT	0
GTCATCACGTGATGTG	0.29
TTTAGCACGTGGACGG	-0.24
AATAGCACGTGGGGGC	-0.07
TGGATCACGTGTATAC	0.25
ATCTGCACGTGGTTGG	-0.04
CTTAACACGTGTATGG	-0.03
AGGTTCACGTGTTAAG	0.23
AGCGGCACGTGAAGTT	0.19

Sequence	relative binding free energy [kcal/mol]
GGTGTCACGTGGTTGT	0.11
TGCGGCACGTGAGTGC	0.16
ATGTACACGTGAGTTT	0.41
CATGTCACGTGTGGCG	-0.02
GGAATCACGTGAGGGT	0.23
AATGTCACGTGATGCG	0.19
TAGCGCACGTGGTGCT	-0.14
GTGTGCACGTGCCGGT	-0.08
GGAGGCACGTGGTCGA	-0.19
TCTGGCACGTGTGTTC	-0.06
TTGATCACGTGATTAA	0.29
AGCGCCACGTGGGTTG	-0.22
TCTAGCACGTGTGAGG	-0.05
GGCGGCACGTGATGGA	0.15
TCGTGCACGTGGGGAC	-0.05
TGTCGCACGTGTGTAA	-0.21
GGGTTCACGTGAAGGG	0.57
TTTGTCACGTGCGATG	0.13
AGGGGCACGTGTGCCT	-0.21
CGGTTCACGTGTACGG	0.39
TGGGGCACGTGACGAG	0.08
AGTGTCACGTGGCGGA	0.08
TTAACCACGTGGTGTG	-0.1
GATTGCACGTGTTAGG	0.1
TGGTACACGTGGACAG	0.03
TGAATCACGTGTGTCT	0.19

Sequence	relative binding free energy [kcal/mol]
GGCACCACGTGGGGGG	-0.26
CAGGCCACGTGAGGGG	0.12
GATGGCACGTGGGGAT	-0.03
CATGTCACGTGTGTTG	0.08
AATTGCACGTGATTAT	0.21
TTCGGCACGTGAGATT	0.27
AGGTGCACGTGGAATA	0.02
ATTATCACGTGTATTG	0.06
TAGTACACGTGTATAT	0.06
TAAAGCACGTGGGGTT	-0.16
TGGGCCACGTGGTTGA	-0.2
GCTTGCACGTGTGTAT	0.09
ATCGTCACGTGGGTTG	0
GTGTACACGTGTAGGC	0.18
AGGTGCACGTGGGCCT	-0.2
AGGATCACGTGTACGT	0.28
AGTAGCACGTGACGAG	0.27
TCAGGCACGTGATGGA	0
GTAATCACGTGGGGAG	0.11
TATTTCACGTGTTTAA	0.16
GCGCGCACGTGTTAGG	-0.06
TGTTACACGTGTGGTC	0.23
TTTTGCACGTGGGTCT	-0.09
TTGGGCACGTGGGCAC	-0.22
TGGGTCACGTGGTTCG	0.09
ATGCACACGTGTGAGG	0.06

Sequence	relative binding free energy [kcal/mol]
TAATGCACGTGTGAGA	0.07
TATGTCACGTGATCTA	0.31
TTCGTCACGTGGTGAG	0.09
AGTGGCACGTGGTCGC	-0.25
GTTATCACGTGCGGCG	0.15
CTAGCCACGTGGTGTG	-0.21
TGTAGCACGTGGTTGA	-0.05
AGTGGCACGTGGTCGA	-0.24
TTAGGCACGTGGGCTC	-0.21
TCTATCACGTGTGGGG	0.2
TCTTTCACGTGTAAGT	0.2
GGGCTCACGTGATGGC	0.55
TGCGCCACGTGTGGGA	-0.18
CGTGTCACGTGGCTAG	-0.01
TCTGGCACGTGTGTTA	-0.03
TATTTCACGTGGCTGT	0.22
TGCGGCACGTGGGGGC	-0.2
GTGAGCACGTGTTTCG	-0.15
TGGTGCACGTGGTGGC	-0.11
TTATTCACGTGTATGA	0.23
TATAACACGTGCGTTT	-0.01
CGGAGCACGTGAGGGG	0.08
GCTGTCACGTGGTTAT	0.09
GTTTTCACGTGCGGTC	0.41
AGTGTCACGTGGGCGC	-0.31
GTTAACACGTGAAAGG	0.36

Sequence	relative binding free energy [kcal/mol]
CGGCTCACGTGATTGG	0.34
TTCTGCACGTGGCGTT	-0.09
CGGCTCACGTGGGAAT	0.31
AAGTTCACGTGATCTT	0.32
CGTTTCACGTGGTTAC	0.23
GAATGCACGTGGGGGT	-0.14
GAGGACACGTGAAAGT	0.56
AATGTCACGTGTGGAA	0.18
GGTAGCACGTGCAAGG	0.08
TTGTGCACGTGGACGC	-0.12
CAGTTCACGTGTTTTA	0.17
TGGAGCACGTGTATGG	-0.04
AGTGGCACGTGATCGG	-0.03
TTGGTCACGTGTAAAA	0.23
GGGTTCACGTGGGTAA	0.23
CTTTGCACGTGATTGT	0.09
ATTATCACGTGCGGGG	0.22
CTAGGCACGTGAGTAG	0.01
TTATTCACGTGATCAT	0.28
GGTAACACGTGTCGGG	0.11
AATTACACGTGGGATG	0.02
GATGGCACGTGAGCGT	0.06
TTTTACACGTGAATGG	0.45
AAGGACACGTGTGCGG	-0.04
TAGTTCACGTGAATGA	0.42
AAGGCCACGTGGGAAT	0.01

Sequence	relative binding free energy [kcal/mol]
TCTTGCACGTGAAAGT	0.23
GGCTTCACGTGGTCGG	0.3
TCGTGCACGTGAAAGT	0.2
CTGATCACGTGGTAGT	0.06
TCGGTCACGTGATTTA	0.23
TTCATCACGTGCGGGT	0.19
CGTGACACGTGGGTAA	-0.08
CGTATCACGTGTGGGA	0.26
GGAAGCACGTGGCAGG	-0.2
GGGATCACGTGGTTGA	0.11
TAAGACACGTGGGTGT	-0.2
CAGTGCACGTGGTTTT	-0.05
TCGTGCACGTGCATGT	-0.03
AGCTTCACGTGTTAGT	0.14
GTTTCCACGTGGTAGT	-0.04
TGGATCACGTGAAAGT	0.31
GGTATCACGTGTGGTA	0.3
GGTTACACGTGGGCTG	-0.12
TGGTTCACGTGATTGC	0.36
TTGTGCACGTGACTGC	0.16
ACTTGCACGTGAGTAT	0.28
ATAGTCACGTGTGGTC	0.11
